# Values joined by “and” are separate entries in the source; they are usually repeats but may differ in a detail not shown here. Identical values can stand only once. This is one part of the list. Shown are side measurements of this screen, not its main read-out; they come without a call.
# Key:
# Experiment in all cases: Primary Screen for Target Class Profiling of Small Molecule Inhibitors of Methyltransferases
# [1] = molecular target: Glycine N-methyltransferase (Homo sapiens) (UniProt Q14749); conditions: purified enzyme, MTase-Glo SAH luminescence; measured here: GNMT inhibition; at 40 µM; stronger effect = lower value
# Method in brief: (§1)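 Each enzyme was reacted with SAM and its substrate, with compounds tested once at 40 uM; SAH formed was read by MTase-Glo luminescence.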
# [2] = molecular target: Guanidinoacetate N-methyltransferase (Homo sapiens) (UniProt Q14353); conditions: purified enzyme, MTase-Glo SAH luminescence; measured here: GAMT inhibition; at 40 µM; stronger effect = lower value
# Method in brief: as §1
# [3] = molecular target: Histamine N-methyltransferase (Homo sapiens) (UniProt P50135); conditions: purified enzyme, MTase-Glo SAH luminescence; measured here: HNMT inhibition; at 40 µM; stronger effect = lower value
# Method in brief: as §1
# [4] = molecular target: Nicotinamide N-methyltransferase (Homo sapiens) (UniProt P40261); conditions: purified enzyme, MTase-Glo SAH luminescence; measured here: NNMT inhibition; at 40 µM; stronger effect = lower value
# Method in brief: as §1
# [5] = molecular target: Phenylethanolamine N-methyltransferase (Homo sapiens) (UniProt P11086); conditions: purified enzyme, MTase-Glo SAH luminescence; measured here: PNMT inhibition; at 40 µM; stronger effect = lower value
# Method in brief: as §1
# % is set by controls: 0 for no effect and ±100 for the full control effect.
Structure (SMILES),"activity change, negative = inhibition [1] [%]","activity change, negative = inhibition [2]","activity change, negative = inhibition [3] [%]","activity change, negative = inhibition [4]","activity change, negative = inhibition [5]"
COc1ccc(NC(=O)N[C@H]2CO[C@H]3[C@@H]2OC[C@@H]3n2nnnc2-c2ccccc2)cc1,-5.86,-3.1%,-1.8,-6.66%,-0.946%
Cc1noc(C)c1CN1CCN(C(=O)C2CCCN2)CC1 (stereo not given),-6.87,-11.2%,-6,-16.9%,-15.9%
COC(=O)[C@H](Cc1cccc(C(=N)N)c1)[C@@H](C)NC(=O)c1ccc(-c2cc[n+]([O-])cc2)cc1,0.487,1.03%,-75.4,-17.8%,3.95%
CCOc1ccc(N2C(=O)c3cc4ccc(OC)cc4n3CC2(C)C(=O)NC2CCCC2)cc1 (stereo not given),-1.96,1.66%,-3.83,-7.12%,-7.9%
CC(=O)N1CCN(Cc2nnc(C(=O)N3CCC[C@@H]3c3cccc(F)c3)n2-c2ccccc2)CC1,-4.49,-3.87%,-2.41,-10%,-0.931%
COc1ccc2cc3n(c2c1)CC(C)(C(=O)NC1CCCC1)N(c1ccc(C)c(C)c1)C3=O (stereo not given),3.62,0%,6.35,6.07%,1.7%
Cc1nc(NC(=O)N2CCC[C@H]2C(N)=O)sc1-c1ccnc(C(C)(C)C(F)(F)F)c1,-17.1,-7.22% and -5.27%,-13.4,-20.7% and -19.4%,-11.5% and -14.8%
COc1ccc(O)cc1CN1CCC(Cc2ccc(C(=O)O)cc2)C1 (stereo not given),-7.64,-10.2%,-21.9,-11%,-26.3%
COc1ccc(C(=O)C2CCN(CC(=O)N(Cc3nc4c(c(=O)[nH]3)COCC4)CC3CC3)CC2)cc1,-3.58,-12.2%,7.73,-19.9%,-2.42%
CC1(C(=O)NC2CCCCCC2)Cn2c(cc3sccc32)C(=O)N1CCCN1CCCCC1 (stereo not given),2.21,0%,-6.07,-1.83%,2.97%
CC(=O)O[C@@H]1C=C2[C@H](CC[C@@]3(C)[C@@]2(O)CC[C@H]2Cc4c([nH]c5ccccc45)[C@@]23C)O[C@@H]1C(C)(C)O,-1.98,6.59%,8.97,-6.27%,4.67%
CCS(=O)(=O)N[C@@H]1CN(Cc2ccccc2)C[C@H]1CN(C)C,-1.6,-2.29%,0.461,-3.25%,1.64%
CCCn1c(=O)c2cc(Cl)ccc2n2c(SCC(=O)Nc3ccccc3F)nnc12,-8.2,0.948%,11.8,5.58%,5.29%
COc1ccc(CN2C(=O)c3ccc(-c4ccccc4)n3CC2(C)C(=O)NC2CCC(C)CC2)cc1 (stereo not given),3.34,3.63%,-0.887,-5.76%,-0.762%
CC(=O)Nc1c2n(c3ccc(F)cc13)CC(C)(C(=O)NC1CCCC1)N(c1ccc(C)cc1)C2=O (stereo not given),3.38,0%,2.03,5.08%,-1.76%
O=C(Cc1cccn1-c1ccc(F)cc1)N1CCCCC1,-12.3,-11.4%,-7.86,-14.8%,4.72%
O=C(CCc1nnc2n(Cc3ccc(Cl)cc3)c(=O)c3ccccc3n12)NCc1ccccn1,-17.7,2.09%,-0.908,-4.48%,-1.11%
O=C(NCCc1ccncc1)C1CN(C(=O)C2CCCCC2)CC12CCOCC2 (stereo not given),0.421,-0.878%,1.72,-0.278%,-0.502%
COc1cc(C(=O)O)ccc1OC1OC(CO)C(O)C(O)C1O (stereo not given),4.33,-0.181%,8.79,-13.3%,4.51%
O=C1NCCCc2[nH]c(-c3cnn(-c4ccc(F)cc4)c3)nc21,-6.35,-6.38%,-3.83,-12.9%,-8.45%
CC(C)CCn1c(=O)c2ccc(C(=O)NC(C)C)cc2n2c(=O)n(CC(=O)NCc3ccccc3)nc12,3.29,3.58%,3.08,-0.108%,1.06%
Clc1cc(Cl)c2c(c1)N=C1CCCCCN1C2,,7.88%,,-15.2%,-14.5%
Cc1cccc(C(=O)N2CC(N(C)Cc3cccnc3)C2)c1,-6.43,-9.64%,-4.87,-15.2%,4.52%
Cc1cccc(CNC(=O)C2(C)Cn3cnc(C(=O)NCc4ccccc4F)c3C(=O)N2C2CC2)c1 (stereo not given),-2.4,0.422%,3.7,0.33%,1.82%
Cc1ccc(CN2CCC(C3CCN(S(C)(=O)=O)CC3)C2)o1 (stereo not given),-2.38,-2%,-2.57,-0.589%,-5.59%
CC1(C(=O)NCC2CCCO2)Cn2c(cc3ccccc32)C(=O)N1Cc1ccccc1Br (stereo not given),3.4,1.31%,0.567,7.32%,-1.63%
Cc1[nH]nc(C(=O)N[C@@H]2COCC[C@@H]2OCc2ccccc2)c1Cl,-1.46,0.575%,-0.036,-1.48%,-3.81%
CCOC(=O)C(CCc1ccccc1)NC1CCCN2CCCC(C(=O)O)N2C1=O (stereo not given),5.68,,11.1,,
Cn1ncc(N2CCCC(CC(=O)O)C2)cc1=O (stereo not given),-5.08,-4.92%,-1.94,-8.42%,-28.5%
CC(=O)N1CCC(C(=O)NCc2nn(Cc3ccccc3)c3ccccc23)CC1,0.947,0.842%,-6.85,-5.54%,1.14%
